Drawing on publication PMC9911399, “Two distinct binding modes provide the RNA-binding protein RbFox with extraordinary sequence specificity”, this text covers binding signal for 31 molecules.

Where a chain is given by its changes, count along the chain named. The list shows a part of the results.

First the molecules themselves.
T1: RBFOX1 RRM (Homo sapiens, UniProt Q9NWB1 109-208)
T1 sequence: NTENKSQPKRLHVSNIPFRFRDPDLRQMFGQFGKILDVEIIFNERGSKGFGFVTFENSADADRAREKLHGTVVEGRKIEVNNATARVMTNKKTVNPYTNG

B1: GGGGAUA (DNA:RNA)
RNA: GGGAGACCGGAAUUCAGAUUGUCCGGGGAUAUUAAAUCCCGUCGUAGCCACCA
DNA 1: CAATCTGAATTCCGGTCTCCC
DNA 2: TGGTGGCTACGACGGGATT
B2: CGACGAC (DNA:RNA)
RNA: B1 RNA with G25C, G27A, G28C, A29G, U30A, A31C
DNA 1: CAATCTGAATTCCGGTCTCCC
DNA 2: TGGTGGCTACGACGGGATT
B3: AAAGUCC (DNA:RNA)
RNA: B1 RNA with G25A, G26A, G27A, A29U, U30C, A31C
DNA 1: CAATCTGAATTCCGGTCTCCC
DNA 2: TGGTGGCTACGACGGGATT
B4: UGCAAUC (DNA:RNA)
RNA: B1 RNA with G25U, G27C, G28A, A31C
DNA 1: CAATCTGAATTCCGGTCTCCC
DNA 2: TGGTGGCTACGACGGGATT
B5: UGUUUAA (DNA:RNA)
RNA: B1 RNA with G25U, G27U, G28U, A29U, U30A
DNA 1: CAATCTGAATTCCGGTCTCCC
DNA 2: TGGTGGCTACGACGGGATT
B6: AAUUAGG (DNA:RNA)
RNA: B1 RNA with G25A, G26A, G27U, G28U, U30G, A31G
DNA 1: CAATCTGAATTCCGGTCTCCC
DNA 2: TGGTGGCTACGACGGGATT
B7: GCCGCGA (DNA:RNA)
RNA: B1 RNA with G26C, G27C, A29C, U30G
DNA 1: CAATCTGAATTCCGGTCTCCC
DNA 2: TGGTGGCTACGACGGGATT
B8: CAUAAUG (DNA:RNA)
RNA: B1 RNA with G25C, G26A, G27U, G28A, A31G
DNA 1: CAATCTGAATTCCGGTCTCCC
DNA 2: TGGTGGCTACGACGGGATT
B9: AGAUUCA (DNA:RNA)
RNA: B1 RNA with G25A, G27A, G28U, A29U, U30C
DNA 1: CAATCTGAATTCCGGTCTCCC
DNA 2: TGGTGGCTACGACGGGATT
B10: GUGGCGU (DNA:RNA)
RNA: B1 RNA with G26U, A29C, U30G, A31U
DNA 1: CAATCTGAATTCCGGTCTCCC
DNA 2: TGGTGGCTACGACGGGATT
B11: GCGCACA (DNA:RNA)
RNA: B1 RNA with G26C, G28C, U30C
DNA 1: CAATCTGAATTCCGGTCTCCC
DNA 2: TGGTGGCTACGACGGGATT
B12: GAGGGGA (DNA:RNA)
RNA: B1 RNA with G26A, A29G, U30G
DNA 1: CAATCTGAATTCCGGTCTCCC
DNA 2: TGGTGGCTACGACGGGATT
B13: UUUGUUA (DNA:RNA)
RNA: B1 RNA with G25U, G26U, G27U, A29U
DNA 1: CAATCTGAATTCCGGTCTCCC
DNA 2: TGGTGGCTACGACGGGATT
B14: UAAGCAA (DNA:RNA)
RNA: B1 RNA with G25U, G26A, G27A, A29C, U30A
DNA 1: CAATCTGAATTCCGGTCTCCC
DNA 2: TGGTGGCTACGACGGGATT
B15: GAGACCU (DNA:RNA)
RNA: B1 RNA with G26A, G28A, A29C, U30C, A31U
DNA 1: CAATCTGAATTCCGGTCTCCC
DNA 2: TGGTGGCTACGACGGGATT
B16: UGAUAAU (DNA:RNA)
RNA: B1 RNA with G25U, G27A, G28U, U30A, A31U
DNA 1: CAATCTGAATTCCGGTCTCCC
DNA 2: TGGTGGCTACGACGGGATT
B17: CGAUCAU (DNA:RNA)
RNA: B1 RNA with G25C, G27A, G28U, A29C, U30A, A31U
DNA 1: CAATCTGAATTCCGGTCTCCC
DNA 2: TGGTGGCTACGACGGGATT
B18: AACUCGC (DNA:RNA)
RNA: GGGAGACCGGAAUUCAGAUUGUCCAACUCGCUUAAAUCCCGUCGUAGCCACCA
DNA 1: CAATCTGAATTCCGGTCTCCC
DNA 2: TGGTGGCTACGACGGGATT
B19: CCUAGGU (DNA:RNA)
RNA: B18 RNA with A25C, A26C, C27U, U28A, C29G, C31U
DNA 1: CAATCTGAATTCCGGTCTCCC
DNA 2: TGGTGGCTACGACGGGATT
B20: GCCGAUA (DNA:RNA)
RNA: B1 RNA with G26C, G27C
DNA 1: CAATCTGAATTCCGGTCTCCC
DNA 2: TGGTGGCTACGACGGGATT
B21: UCUGCCG (DNA:RNA)
RNA: B18 RNA with A25U, A26C, C27U, U28G, G30C, C31G
DNA 1: CAATCTGAATTCCGGTCTCCC
DNA 2: TGGTGGCTACGACGGGATT
B22: GUGUAUG (DNA:RNA)
RNA: B1 RNA with G26U, G28U, A31G
DNA 1: CAATCTGAATTCCGGTCTCCC
DNA 2: TGGTGGCTACGACGGGATT
B23: UUGAAUA (DNA:RNA)
RNA: B1 RNA with G25U, G26U, G28A
DNA 1: CAATCTGAATTCCGGTCTCCC
DNA 2: TGGTGGCTACGACGGGATT
B24: AGCUAUA (DNA:RNA)
RNA: B1 RNA with G25A, G27C, G28U
DNA 1: CAATCTGAATTCCGGTCTCCC
DNA 2: TGGTGGCTACGACGGGATT
B25: CAACUUU (DNA:RNA)
RNA: B18 RNA with A25C, C27A, U28C, C29U, G30U, C31U
DNA 1: CAATCTGAATTCCGGTCTCCC
DNA 2: TGGTGGCTACGACGGGATT
B26: AGGCGGA (DNA:RNA)
RNA: B1 RNA with G25A, G28C, A29G, U30G
DNA 1: CAATCTGAATTCCGGTCTCCC
DNA 2: TGGTGGCTACGACGGGATT
B27: CGGAUCC (DNA:RNA)
RNA: B1 RNA with G25C, G28A, A29U, U30C, A31C
DNA 1: CAATCTGAATTCCGGTCTCCC
DNA 2: TGGTGGCTACGACGGGATT
B28: AAGGACG (DNA:RNA)
RNA: B1 RNA with G25A, G26A, U30C, A31G
DNA 1: CAATCTGAATTCCGGTCTCCC
DNA 2: TGGTGGCTACGACGGGATT
B29: GUAGUUU (DNA:RNA)
RNA: B1 RNA with G26U, G27A, A29U, A31U
DNA 1: CAATCTGAATTCCGGTCTCCC
DNA 2: TGGTGGCTACGACGGGATT
B30: AGCGCAU (DNA:RNA)
RNA: B18 RNA with A26G, U28G, G30A, C31U
DNA 1: CAATCTGAATTCCGGTCTCCC
DNA 2: TGGTGGCTACGACGGGATT
B31: GGGAAGU (DNA:RNA)
RNA: B1 RNA with G28A, U30G, A31U
DNA 1: CAATCTGAATTCCGGTCTCCC
DNA 2: TGGTGGCTACGACGGGATT

This test deals with T1, RBFOX1 RRM. As to the kind of experiment: EMSA; HiTS-Eq, 1 nM pool, 10 min; buffer printed only for the single-RNA assays: 10 mM Tris pH 7.5, 150 mM NaCl, 3.4 mM EDTA, 0.001% NP-40, 30 C. As to conditions: tags: His6 N-terminal (pET28a); label: 5' 32P. The gist of the method: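 Purified wild-type or mutant RbFox RRM at increasing concentrations was equilibrated with 1 nM of 5′-radiolabelled RNA carrying 7 randomized nucleotides for 10 min in 50 µL. Unbound RNA was separated by 8% native PAGE and sequenced. Relative association constants came from read-count changes of each RNA species compared with the control reaction, normalised to the cognate motif.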
A general note: A gel shift assay detects complexes by their altered migration in electrophoresis.
Turning to B1, the binding signal is 0.0268 KA relative to UGCAUGU.

Take B2: the binding signal is 0.00583 KA relative to UGCAUGU.

Regarding B3, the binding signal was 0.00674 KA relative to UGCAUGU.

Take B4: the binding signal is 0.00958 KA relative to UGCAUGU.

Turning to B5, the binding signal is 0.0158 KA relative to UGCAUGU.

As for B6, the binding signal was 0.00759 KA relative to UGCAUGU.

On to B7, for which the binding signal is 0.0198 KA relative to UGCAUGU.

As for B8, the binding signal was 0.00556 KA relative to UGCAUGU.

Turning to B9, the binding signal was 0.00597 KA relative to UGCAUGU.

In the case of B10, the binding signal is 0.0228 KA relative to UGCAUGU.

B11: the binding signal was 0.0105 KA relative to UGCAUGU.

With B12, the binding signal is 0.0145 KA relative to UGCAUGU.

With B13, the binding signal was 0.0162 KA relative to UGCAUGU.

Take B14: the binding signal is 0.00952 KA relative to UGCAUGU.

In the case of B15, the binding signal was 0.00471 KA relative to UGCAUGU.

B16: the binding signal is 0.0068 KA relative to UGCAUGU.

B17: the binding signal was 0.0016 KA relative to UGCAUGU.

As for B18, the binding signal was 0.00648 KA relative to UGCAUGU.

Take B19: the binding signal was 0.0101 KA relative to UGCAUGU.

As to B20, the binding signal is 0.00929 KA relative to UGCAUGU.

Turning to B21, the binding signal is 0.0168 KA relative to UGCAUGU.

Regarding B22, the binding signal was 0.023 KA relative to UGCAUGU.

With B23, the binding signal is 0.00895 KA relative to UGCAUGU.

For the molecule B24, the binding signal was 0.00341 KA relative to UGCAUGU.

Regarding B25, the binding signal is 0.000994 KA relative to UGCAUGU.

Turning to B26, the binding signal is 0.0127 KA relative to UGCAUGU.

For the molecule B27, the binding signal was 0.0242 KA relative to UGCAUGU.

As to B28, the binding signal is 0.00506 KA relative to UGCAUGU.

Take B29: the binding signal was 0.0112 KA relative to UGCAUGU.

In the case of B30, the binding signal is 0.0144 KA relative to UGCAUGU.

Regarding B31, the binding signal is 0.0302 KA relative to UGCAUGU.
